# About 64,000 (15%) of roughly 420,000 compounds were called active. The inconclusive results got no clear call from the source; some entries with a clear call stand among them for comparison. Calls follow the shape of the dose curve; as a rule, active = well fitted inhibition curve with a large enough effect; inconclusive = small, poorly fitted or top-dose-only effect; inactive = flat fitted curve, though single readings scatter. Potencies of inconclusive entries are left out as doubtful fits.
# Experiment: qHTS for Inhibitors of human tyrosyl-DNA phosphodiesterase 1 (TDP1): qHTS in cells in absence of CPT; also: nearly all actives have a fitted effect of over 55% in size
# Settings: DT40 Tdp1-/- hTDP1 cells, no CPT, ATP luminescence, 48 h; activity change, negative = growth inhibition: at 46.2 µM (top of the series) unless noted
# Summary of the method: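 No-CPT arm: Tdp1-/-;hTDP1 DT40 cells (400/well) plus compounds, incubated ≥48 hr at 37 °C. Readout CellTiter-Glo luminescence.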
# % is scaled to controls: 0 for no effect and ±100 for the full control effect; potency is read from the fitted curve at half-maximal effect; tags tell the direction and shape of the fitted curve.
SMILES,Potency,"activity change, negative = growth inhibition"
COc1ccc(OC)c(N=Cc2c(O)c3ccccc3oc2=O)c1,"inconclusive [inhibitor, single point]",–
O=S1(=O)CC(N2CCN(CCO)CC2)CN1C1CCCCC1 (centres undefined),–,inactive: 7.53%
COc1cccc2c1C1COC3C4CC(C(=O)O)C(C(C2)N13)N4C (centres undefined),active: 11.6 µM,–
Cn1cc(S(=O)(=O)N2CCCC2)cc1C(=O)Nc1cccc(C(F)(F)F)c1,"inconclusive [inhibitor, single point]",–
CCOC(=O)c1c(C)[nH]c(C)c1S(=O)(=O)N1CCC(C(=O)Nc2ccc(C)c(N(C)C)c2)CC1,–,inconclusive: -30.6% [inhibitor]
Cc1cc(-c2ccc(C)c(S(=O)(=O)NCc3cccs3)c2)on1,active: 14.6 µM,–
CC(C)CCSc1nc(N)c(C#N)cc1C#N,active: 18.4 µM,–
CN(CC(=O)NC(=O)NC(C)(C)C)CC(=O)Nc1ccccc1Cl,–,inactive: 14.4%
CN(CCO)S(=O)(=O)c1ccc2c(c1)C(=NN)c1cc(S(=O)(=O)N(C)CCO)ccc1-2,"inconclusive [inhibitor, single point]",–
O=C(CC(c1cccs1)S(=O)(=O)c1ccccc1)c1ccc(F)cc1 (centres undefined),–,inactive: -25.8%
Cc1ccc(C(=O)Nc2c(C)n(C)n(-c3ccccc3)c2=O)cc1S(=O)(=O)N1CCCCC1,–,inactive: 4.91%
O=C(Nc1ccccc1C(=O)NC(Cc1ccccc1)C(=O)O)c1ccccc1 (centres undefined),–,inactive: -3.43%
CCn1cc(C(=O)OCC(=O)c2cc(C)n(-c3ccc(OC(F)F)cc3)c2C)c(=O)c2ccc(C)nc21,active: 13 µM,–
O=S(=O)(c1cnc(Cl)c(Cl)c1)N1CCc2ccccc21,active: 16.4 µM,–
CSc1ccc(/C=N/NC(=O)c2ccc(C)c(C)c2)cc1,active: 23.1 µM,–
COc1cccc2sc(Nc3nc(-c4ccncc4)cs3)nc12,active: 2.91 µM,–
CC(=O)c1ccc(S(=O)(=O)N2CCC(NC(=O)Nc3cccc(F)c3)CC2)cc1,"inconclusive [inhibitor, partial curve, poor fit]",–
O=c1[nH]c(=S)[nH]c2c1C(c1ccc(Cl)cc1)OC(C1CCCCC1)C2 (centres undefined),"inconclusive [inhibitor, single point]",–
CCN1CCN(C(=O)Cn2nc(C)c3sc4ccccc4c3c2=O)CC1,–,inactive: 11.8%
CC(C)(C)c1csc(NC(=O)CSC2=NCCS2)n1,"inconclusive [inhibitor, single point]",–
COc1ccccc1N1CCN(C(=O)CCNS(=O)(=O)c2ccc(Br)s2)CC1,active: 18.4 µM,–
COc1ccccc1NC(=O)c1ccc(NC(=O)COC(=O)CC(NC(=O)c2ccccc2Cl)c2ccccc2)cc1 (centres undefined),"inconclusive [inhibitor, single point]",–
Cc1ccc2c(N)c(C(=O)c3ccccc3)sc2n1,"inconclusive [inhibitor, single point]",–
O=C(c1cnccn1)N1CCC2(CC1)CN(c1ccncc1)C2,–,inactive: -10.9%
CCCCn1c(=O)[nH]c(=O)c2c(C(=O)OCC)cc(-c3ccc(OC(F)F)cc3)nc21,"inconclusive [inhibitor, partial curve, poor fit]",–

SMILES,Potency,"activity change, negative = growth inhibition"
COc1ccccc1CC(=O)NCCCc1ccccc1,"inconclusive [inhibitor, single point]",–
Cc1cc(/C=N/NC(=O)c2c(Br)cnn2C)c(C)n1-c1cccc(Br)c1,"inconclusive [inhibitor, partial curve]",–
NC(=O)c1ccc[n+](Cc2ccccc2)c1,–,inactive: -1.59%
COc1nc(-c2ccccc2)nc(-c2ccccc2)c1C,–,inactive: -32.2%
CC(C)n1cnc2c(Nc3cccc(Cl)c3)nc(N(CCO)CCCO)nc21,active: 14.6 µM,–
COc1ccc(N2CCN(c3ncnc4c3cnn4-c3ccc(C)cc3C)CC2)cc1,active: 11.6 µM,–
CNC(=O)c1ccc(CN(C)C(=O)c2cc(C3CC3)nc3c2cnn3C(C)C)cc1,"inconclusive [inhibitor, full curve, poor fit]",–
O=c1c2oc3ccccc3c2n(Cc2ccc(Cl)cc2)c(=O)n1Cc1ccccc1,"inconclusive [inhibitor, single point]",–
CCC1(CC)C(=O)NC(=O)NC1=NCCc1c[nH]c2ccccc12,–,inactive: 3.59%
CCOc1ccccc1N1CCN(S(=O)(=O)c2ccc(Cl)s2)CC1,"inconclusive [inhibitor, single point]",–
Cc1ccc(Nc2c(-c3ccc(C)o3)nc3cccc(C)n23)cc1,active: 11.2 µM,–
C/C(CC(=O)Nc1ccc2c(c1)OCO2)=N\NC(=O)C(c1ccccc1)c1ccccc1,–,inactive: -19.6%
O=C(N/N=C/c1cn(-c2cccs2)nc1-c1ccccc1)c1ccc(O)cc1,–,inconclusive: -34.1% [inhibitor]
C=CCNC(=O)c1cccc2c1C(=O)c1ccc(N3CCCC3)cc1S2(=O)=O,"inconclusive [inhibitor, single point]",–
COCCN1CCN(C(=O)c2cnn(-c3nccc(-c4ccccc4OC)n3)c2-c2ccco2)CC1,–,inactive: -10%
Cc1[nH]n(-c2ccc(Br)cc2)c(=O)c1C=Nc1ccc(S(=O)(=O)Nc2nccs2)cc1,"inconclusive [inhibitor, partial curve]",–
COc1ccc(Br)cc1/C=C/C(=O)c1ccc(NC(C)=O)cc1,active: 4.11 µM,–
CCS(=O)(=O)c1ncc(Cl)c(C(=O)NCc2ccccc2)n1,active: 2.31 µM,–
COc1ccc2nc(SCC(=O)Nc3ccccc3OC)[nH]c2c1,"inconclusive [inhibitor, single point]",–
Cc1ccc(NC(=O)c2c([N+](=O)[O-])c(C(C)(C)C)nn2C)c(C)c1,–,inactive: 1.24%
COc1ccccc1OCCNC(=O)c1ccc(S(=O)(=O)N(C)C)cc1,–,inactive: -5.2%
Cc1[nH]c2ccccc2c1C(=O)CN1CCN(c2ccc(Cl)cc2)CC1,–,inactive: -28.3%
CC(C)c1ccc(NC(=O)c2cc(-c3cc(F)ccc3OCC3CCCO3)n[nH]2)cc1 (centres undefined),"inconclusive [inhibitor, single point]",–
Cc1cccc(/C=N/NC(=O)NC2CCCCC2)c1,"inconclusive [inhibitor, partial curve]",–

# Source: PubChem BioAssay AID686978 (National Center for Advancing Translational Sciences (NCATS), 2013)
